Some of the results follow. These are noisy estimates, calculated here from bound and input reads.

The assay concerns the target T1, Pho4 (S. cerevisiae) (UniProt P07270).
T1 sequence: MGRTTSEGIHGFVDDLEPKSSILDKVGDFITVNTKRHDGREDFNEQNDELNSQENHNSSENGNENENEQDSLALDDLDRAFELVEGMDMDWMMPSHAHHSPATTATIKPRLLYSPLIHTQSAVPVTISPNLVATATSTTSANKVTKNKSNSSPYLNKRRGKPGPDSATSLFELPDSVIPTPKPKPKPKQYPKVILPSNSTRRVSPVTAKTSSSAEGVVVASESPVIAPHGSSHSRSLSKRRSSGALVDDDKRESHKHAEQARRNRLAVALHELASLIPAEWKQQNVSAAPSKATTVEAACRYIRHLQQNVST
The assay can be described thus: relative binding free energy (BET-seq); higher = weaker binding. The note with it: reference: library average.
As to TAGAACACGTGTGTGT, the “relative binding free energy” value is 0.02 kcal/mol.

In the case of TAATACACGTGGGTTT, the “relative binding free energy” value was -0.18 kcal/mol.

As for GTATTCACGTGTGGAA, the “relative binding free energy” value turned out to be 0.46 kcal/mol.

On to TATGTCACGTGAGGAG, for which the “relative binding free energy” value was determined as 0.25 kcal/mol.

For GTGTTCACGTGTCGTA, the “relative binding free energy” value stood at 0.26 kcal/mol.

ATATACACGTGGGTGT: the “relative binding free energy” value was -0.11 kcal/mol.

Consider TTCTACACGTGGGGAT, for which the “relative binding free energy” value is 0.06 kcal/mol.

On to ATTAGCACGTGGTGAG, for which the “relative binding free energy” value was -0.14 kcal/mol.

Regarding GGTATCACGTGTTGTC, the “relative binding free energy” value came out at 0.12 kcal/mol.

In the case of ATTTGCACGTGTTGTG, the “relative binding free energy” value worked out at 0.04 kcal/mol.

With GGTGGCACGTGGGGTA, the “relative binding free energy” value is -0.16 kcal/mol.

Regarding GGAATCACGTGTTATA, the “relative binding free energy” value was found to be 0.12 kcal/mol.

On to GATGTCACGTGTGACT, for which the “relative binding free energy” value is 0.28 kcal/mol.

In the case of GTTAGCACGTGGCTTT, the “relative binding free energy” value is 0 kcal/mol.

Consider GAGATCACGTGTGGAG, for which the “relative binding free energy” value was 0.28 kcal/mol.

As to ATGGTCACGTGAAGTA, the “relative binding free energy” value was found to be 0.32 kcal/mol.

In the case of TGGATCACGTGCAATG, the “relative binding free energy” value turned out to be 0.26 kcal/mol.

For AGTTGCACGTGATCTG, the “relative binding free energy” value was found to be 0.11 kcal/mol.

In the case of GAAGTCACGTGTGGGG, the “relative binding free energy” value worked out at 0.18 kcal/mol.

Regarding AGGGGCACGTGACAGG, the “relative binding free energy” value was -0.13 kcal/mol.

With TGGTTCACGTGGCGAA, the “relative binding free energy” value is 0.12 kcal/mol.

For the sequence ATTGGCACGTGGGGAA, the “relative binding free energy” value is -0.18 kcal/mol.

With GATTGCACGTGTGTTT, the “relative binding free energy” value came out at 0.16 kcal/mol.

As for AGAAGCACGTGGGGCA, the “relative binding free energy” value was -0.22 kcal/mol.

In the case of GATATCACGTGTGGAA, the “relative binding free energy” value amounted to 0.15 kcal/mol.

In the case of TCTTTCACGTGTATTA, the “relative binding free energy” value stood at 0.26 kcal/mol.

Take GTCTTCACGTGTTAGT: the “relative binding free energy” value was 0.33 kcal/mol.

On to GGTTCCACGTGGTATT, for which the “relative binding free energy” value was 0.03 kcal/mol.

Take GGAGACACGTGGTAGT: the “relative binding free energy” value is -0.18 kcal/mol.

In the case of TGATTCACGTGTTTAA, the “relative binding free energy” value was 0.25 kcal/mol.

For TGCTACACGTGTTGGA, the “relative binding free energy” value stood at 0.16 kcal/mol.

On to GAGGTCACGTGGTAAA, for which the “relative binding free energy” value was found to be 0.19 kcal/mol.

Turning to AAATCCACGTGTGGTT, the “relative binding free energy” value is 0.21 kcal/mol.

As to GTGACCACGTGTTGGG, the “relative binding free energy” value is -0.21 kcal/mol.

As for ATGCACACGTGTGGTG, the “relative binding free energy” value is -0.07 kcal/mol.

On to GGTATCACGTGGTCTT, for which the “relative binding free energy” value is 0.22 kcal/mol.

For the sequence GAAGTCACGTGGGTTT, the “relative binding free energy” value is 0.1 kcal/mol.

In the case of GTCTACACGTGAGGGG, the “relative binding free energy” value stood at 0.26 kcal/mol.

For TGGGGCACGTGATACA, the “relative binding free energy” value stood at 0.09 kcal/mol.

ATGTCCACGTGTGTGC: the “relative binding free energy” value was 0.12 kcal/mol.

AGTGCCACGTGTGGCT: the “relative binding free energy” value is -0.03 kcal/mol.

On to GAGGGCACGTGGTCAT, for which the “relative binding free energy” value is -0.14 kcal/mol.

Regarding TGAGGCACGTGATAAG, the “relative binding free energy” value was -0.12 kcal/mol.

Consider CATAGCACGTGGGTAT, for which the “relative binding free energy” value was -0.19 kcal/mol.

In the case of AAAGGCACGTGTGTCG, the “relative binding free energy” value is -0.13 kcal/mol.

In the case of GTTCTCACGTGCATTG, the “relative binding free energy” value is 0.3 kcal/mol.

Regarding ATAGTCACGTGAATTA, the “relative binding free energy” value was found to be 0.34 kcal/mol.

Turning to GGAGGCACGTGCTGGC, the “relative binding free energy” value is -0.21 kcal/mol.

Consider ATTATCACGTGAGTAG, for which the “relative binding free energy” value amounted to 0.28 kcal/mol.

Turning to GAGGTCACGTGCATTT, the “relative binding free energy” value amounted to 0.3 kcal/mol.

With ATTGTCACGTGATGTG, the “relative binding free energy” value worked out at 0.17 kcal/mol.

Consider TGTTTCACGTGTACAG, for which the “relative binding free energy” value amounted to 0.29 kcal/mol.

With GGCGTCACGTGTATTT, the “relative binding free energy” value is 0.29 kcal/mol.

Take CGTGACACGTGTGTAT: the “relative binding free energy” value stood at 0.01 kcal/mol.

In the case of TGATGCACGTGGTGAT, the “relative binding free energy” value was found to be 0.03 kcal/mol.

As to TATGGCACGTGGCGTG, the “relative binding free energy” value was -0.19 kcal/mol.

In the case of GTGTTCACGTGAAGGT, the “relative binding free energy” value came to 0.49 kcal/mol.

As for TGTGGCACGTGTAGAC, the “relative binding free energy” value stood at 0.02 kcal/mol.

AGGGACACGTGAGGTG: the “relative binding free energy” value was found to be 0.19 kcal/mol.

On to TGTTACACGTGTGGAG, for which the “relative binding free energy” value turned out to be 0.2 kcal/mol.

For the sequence CATGACACGTGTTGTG, the “relative binding free energy” value was found to be 0 kcal/mol.

Regarding TTCGCCACGTGTGGGA, the “relative binding free energy” value is -0.01 kcal/mol.

Consider CCGGCCACGTGTGGGG, for which the “relative binding free energy” value was -0.06 kcal/mol.

As for TATTTCACGTGTGAAA, the “relative binding free energy” value was 0.39 kcal/mol.

TGAATCACGTGTGCTG: the “relative binding free energy” value stood at 0.13 kcal/mol.

Consider TGGGCCACGTGATGAG, for which the “relative binding free energy” value is 0.01 kcal/mol.

Regarding TTGTGCACGTGTTGCG, the “relative binding free energy” value is 0.05 kcal/mol.

Turning to TGCGGCACGTGGTTCG, the “relative binding free energy” value is -0.16 kcal/mol.

As for AATATCACGTGCGTTA, the “relative binding free energy” value came out at 0.21 kcal/mol.

On to AGTCACACGTGGTTTA, for which the “relative binding free energy” value was found to be 0.2 kcal/mol.

Regarding ATGGCCACGTGTTCGT, the “relative binding free energy” value is -0.07 kcal/mol.

Turning to AATTACACGTGATGAT, the “relative binding free energy” value was 0.17 kcal/mol.

In the case of CGGTTCACGTGACGGG, the “relative binding free energy” value turned out to be 0.32 kcal/mol.

In the case of TTAGGCACGTGTGGAC, the “relative binding free energy” value was -0.05 kcal/mol.

As to TGGACCACGTGTTGTT, the “relative binding free energy” value came to 0.08 kcal/mol.

For the sequence GAACGCACGTGTTTGG, the “relative binding free energy” value is -0.05 kcal/mol.

For the sequence TGAAGCACGTGCATGG, the “relative binding free energy” value was -0.09 kcal/mol.

Regarding TGATACACGTGTGGCG, the “relative binding free energy” value is -0.06 kcal/mol.

GGGTGCACGTGTCTGG: the “relative binding free energy” value was determined as 0.04 kcal/mol.

For the sequence TAAGACACGTGGAATG, the “relative binding free energy” value came out at 0.17 kcal/mol.

In the case of GCGGGCACGTGAAGGT, the “relative binding free energy” value worked out at 0.32 kcal/mol.

Turning to TAGTTCACGTGCCGGT, the “relative binding free energy” value is 0.26 kcal/mol.

On to ACGGGCACGTGTTATG, for which the “relative binding free energy” value was -0.29 kcal/mol.

Take AGCTGCACGTGAGTCG: the “relative binding free energy” value came to 0.43 kcal/mol.

For the sequence TAGGACACGTGCAGTG, the “relative binding free energy” value is -0.11 kcal/mol.

Regarding GGTGTCACGTGTTGAG, the “relative binding free energy” value was 0.12 kcal/mol.

For GTACTCACGTGATGGG, the “relative binding free energy” value was determined as 0.23 kcal/mol.

Take AGAGTCACGTGGGCTG: the “relative binding free energy” value is -0.16 kcal/mol.

As for CGAGTCACGTGTGTGG, the “relative binding free energy” value turned out to be 0.1 kcal/mol.

With TTAGCCACGTGGTGGT, the “relative binding free energy” value is -0.12 kcal/mol.

With AGGCTCACGTGGATGT, the “relative binding free energy” value was 0.14 kcal/mol.

As to TTGCGCACGTGAGGAT, the “relative binding free energy” value turned out to be 0.18 kcal/mol.

For the sequence GGATGCACGTGAGTAG, the “relative binding free energy” value was found to be 0.23 kcal/mol.

For the sequence TTGGTCACGTGGTGGC, the “relative binding free energy” value came to 0.18 kcal/mol.

For the sequence TAGGTCACGTGGAGGA, the “relative binding free energy” value turned out to be 0 kcal/mol.

On to TTTTGCACGTGTAAAG, for which the “relative binding free energy” value turned out to be 0.16 kcal/mol.

For the sequence TAATGCACGTGTGTGT, the “relative binding free energy” value amounted to 0.06 kcal/mol.

With TTCGTCACGTGTCGGT, the “relative binding free energy” value worked out at 0.14 kcal/mol.

On to CGGTACACGTGGAGGT, for which the “relative binding free energy” value is -0.03 kcal/mol.

As for GCAGGCACGTGGGTAA, the “relative binding free energy” value was -0.2 kcal/mol.

Regarding TGATGCACGTGGCTGT, the “relative binding free energy” value was -0.1 kcal/mol.

As to AGTTACACGTGATTAT, the “relative binding free energy” value was found to be 0.17 kcal/mol.

For the sequence GGTCCCACGTGGTGGA, the “relative binding free energy” value was -0.08 kcal/mol.

Turning to GTTGGCACGTGGGCCT, the “relative binding free energy” value was -0.14 kcal/mol.

For GTAATCACGTGTAGCT, the “relative binding free energy” value was determined as 0.21 kcal/mol.

Turning to TCGCGCACGTGGAGGT, the “relative binding free energy” value is -0.18 kcal/mol.

TGTATCACGTGATCTT: the “relative binding free energy” value was 0.15 kcal/mol.

In the case of GACTGCACGTGGAGGA, the “relative binding free energy” value came to 0.19 kcal/mol.

Consider CGTCTCACGTGTGGGA, for which the “relative binding free energy” value is 0.2 kcal/mol.

As for CACTGCACGTGGGGCG, the “relative binding free energy” value was -0.05 kcal/mol.

Take TTTAGCACGTGCTTGG: the “relative binding free energy” value is -0.05 kcal/mol.

With TGTGTCACGTGGGAAG, the “relative binding free energy” value came out at 0.02 kcal/mol.

Take GGTTGCACGTGCGTTG: the “relative binding free energy” value is 0.05 kcal/mol.

For the sequence TGAGACACGTGTGAGA, the “relative binding free energy” value worked out at 0.23 kcal/mol.

In the case of CTTTGCACGTGAGGGC, the “relative binding free energy” value worked out at 0.22 kcal/mol.
